This passage reports cytotoxicity call and growth inhibition call results from the antibiotic and cytotoxicity screens of Wong et al. (2023).

This is one part of the list.

The test system of one test is HSkMC. Briefly: cytotoxicity call (relative viability < 0.9). The conditions noted are these: 10 µM.
A further test has as its system HepG2. Put plainly: cytotoxicity call (relative viability < 0.9). To be noted: 10 µM.
The next test deals with S. aureus RN4220. Put plainly: growth inhibition call (relative growth <= 0.2). To be noted: 50 µM.

Take `O=C(C[C@@H]1CC=CCC[C@H](Cc2ccc(F)cc2)C(=O)OC[C@@H](Cc2c[nH]c3ccccc23)NC1=O)N[C@@H](CO)Cc1ccccc1`: the cytotoxicity call in the test with HSkMC and with HepG2 was “inactive” throughout. Further, in the test on S. aureus RN4220, the growth inhibition call was “inactive”.
In the case of `COc1ccc(NC(=O)Nc2ccc3c(c2)C(=O)N([C@@H](C)CO)C[C@@H](C)[C@H](CN(C)C(=O)Nc2ccc(F)cc2)OCCCC[C@H](C)O3)cc1`, the cytotoxicity call in the test with HSkMC and in the test on HepG2 was “inactive” throughout. Further, the growth inhibition call in the test on S. aureus RN4220 is “inactive”.
On to `C[C@@H]1CN([C@@H](C)CO)C(=O)c2cc(NC(=O)c3ccncc3)ccc2O[C@H]1CN(C)Cc1ccncc1`, for which the cytotoxicity call in the test on HSkMC and in the test with HepG2 was “inactive” throughout. In the test with S. aureus RN4220, the growth inhibition call was “inactive”.
Consider `CCN1CCC[C@@H]1CN1CNC(=S)NC1`, for which, in the test on HSkMC, the cytotoxicity call was “inactive”. The cytotoxicity call in the test with HepG2 is “active”. For the same molecule, in the test with S. aureus RN4220, the growth inhibition call is “inactive”.
With `CN1CCN(CC#N)C(=O)C12CCN(C(=O)c1cnccn1)CC2`, the cytotoxicity call in the test on HSkMC and in the test on HepG2 was “inactive” in each case. Besides, the growth inhibition call in the test on S. aureus RN4220 was “inactive”.
`O=C(O)Cn1ccccc1=O`: the cytotoxicity call with HSkMC and with HepG2 was “inactive” in each case. The growth inhibition call with S. aureus RN4220 is “inactive”.
Regarding `Cc1noc(C)c1S(=O)(=O)N(C)C[C@H]1Oc2ccc(NS(=O)(=O)c3ccccc3)cc2CC(=O)N([C@@H](C)CO)C[C@@H]1C`, the cytotoxicity call with HSkMC and in the test on HepG2 was “inactive” in each case. In addition, in the test on S. aureus RN4220, the growth inhibition call was “inactive”.
As to `C[C@@H]1CN([C@@H](C)CO)C(=O)c2cc(NC(=O)c3ccccc3)ccc2O[C@@H](C)CCCCO[C@H]1CN(C)C(=O)C1CCCCC1`, the cytotoxicity call in the test on HSkMC (human skeletal muscle cells) and in the test on HepG2 was “inactive” in each case. The growth inhibition call with S. aureus RN4220 is “inactive”.
Turning to `C[C@@H]1CCCCO[C@@H](CN(C)S(=O)(=O)c2ccc(Cl)cc2)[C@@H](C)CN([C@H](C)CO)C(=O)c2cc(NC(=O)CCCCCC(=O)Nc3ccccc3N)ccc2O1`, the cytotoxicity call in the test with HSkMC and with HepG2 was “inactive” in each case. Further, the growth inhibition call in the test with S. aureus RN4220 is “inactive”.
Turning to `C[C@@H]1CCCCO[C@H](CN(C)Cc2ccccc2)[C@H](C)CN([C@@H](C)CO)C(=O)c2cc(NC(=O)c3ccncc3)ccc2O1`, the cytotoxicity call with HSkMC and with HepG2 was “inactive” in each case. Further, in the test on S. aureus RN4220, the growth inhibition call is “inactive”.
